Measured values reported in the RNAGym collection of RNA variant scans (doi:10.1093/nar/gkz1192).
Read counts are not given, so values of variants with three or more changes are uncertain.

B1: CPEB3 Ribozyme (parent)
chain: UAACAGGGGGCCACAGCAGAAGCGUUCACGUCGCAGCCCCUGUCAGAUUCUGGUGAAUCUGCGAAUUCUGCUGUAUAUCUC

Variants of: B1
Test: self-cleavage, relative activity (ratio to wild type); higher = more cleavage; in vitro, sequencing
In short: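 CPEB3 self-cleaving ribozyme mutant libraries were made by rounds of error-prone PCR, barcoded, and transcribed in vitro with T7 RNA polymerase for 5 hours at 37°C. Cleavage occurred during transcription and a 15 min DNase I step before EDTA stop. RNAs were reverse transcribed with template switching and Illumina-sequenced, with DNA sequencing mapping barcodes to variants. Relative activity is the variant's cleaved/total read fraction divided by wild type's (minimum 5 reads), averaged across three batches.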
In the case of A47G A57G U60A, the self-cleavage is reported as 0.19.
A47G A57U U60C gave a self-cleavage of 0.18.
A47G A57U U60C U78C gave a self-cleavage of 0.16.
In the case of A47G A57U U66C, the self-cleavage is reported as 0.18.
For A47G A64G U66C G73A, the self-cleavage was 0.55.
Variant A47G A64G U66C U76G has a self-cleavage of 0.09.
Variant A47G A64G U67C A77G has a self-cleavage of 0.21.
In the case of A47G A64G U67C U72C, the self-cleavage is reported as 0.42.
A47G A64U A75U gave a self-cleavage of 0.13.
In the case of A47G A64U U72C, the self-cleavage is reported as 0.34.
Work on A47G A65G A77G yielded a self-cleavage of 0.42.
In the case of A47G A65G U69C, the self-cleavage is reported as 0.13.
For A47G A65G U80A, the self-cleavage was 0.48.
A47G A75G U78A showed a self-cleavage of 1.46.
Variant A47G A77U U80C has a self-cleavage of 1.11.
Work on A47G C50G C62U U69C yielded a self-cleavage of 0.12.
For A47G C59G U67G, the self-cleavage was 0.13.
In the case of A47G C62A U72A, the self-cleavage is reported as 0.3.
With A47G G52A U72A the self-cleavage was 0.95.
Variant A47G G53C A57G U67C U72C has a self-cleavage of 0.57.
For A47G G55A A57U U72C, the self-cleavage was 0.19.
A47G U48A A56U gave a self-cleavage of 0.31.
With A47G U48A U49A U67C the self-cleavage was 0.08.
In the case of A47G U48A U72C, the self-cleavage is reported as 0.56.
Variant A47G U48C A56U A57G U66C has a self-cleavage of 0.11.
With A47G U48C A56U U72C the self-cleavage was 0.18.
A47G U48C U49C U60A C79U showed a self-cleavage of 0.13.
Variant A47G U48C U60C U72G has a self-cleavage of 0.11.
With A47G U48C U80C the self-cleavage was 0.28.
In the case of A47G U49A A57G A65G U69A, the self-cleavage is reported as 0.08.
A47G U49A U54A gave a self-cleavage of 0.53.
Variant A47G U49C G55C has a self-cleavage of 0.24.
A47G U49C G73A gave a self-cleavage of 0.56.
In the case of A47G U49C U54A U69C, the self-cleavage is reported as 0.24.
Work on A47G U49C U54C yielded a self-cleavage of 0.48.
Work on A47G U49C U54G yielded a self-cleavage of 0.15.
Variant A47G U49C U60A U69C U72C has a self-cleavage of 0.13.
With A47G U51A A57U the self-cleavage was 0.21.
A47G U51A A65G U66C showed a self-cleavage of 0.11.
Work on A47G U51A C59U yielded a self-cleavage of 0.42.
With A47G U51A C71A U80G the self-cleavage was 0.47.
Variant A47G U51A U69C has a self-cleavage of 0.52.
Work on A47G U51C A57G yielded a self-cleavage of 0.5.
A47G U51C A57G U76C gave a self-cleavage of 0.27.
For A47G U51C C62U, the self-cleavage was 0.2.
A47G U51C G52U A65U A75G showed a self-cleavage of 0.13.
Variant A47G U51C U80A has a self-cleavage of 1.15.
A47G U54A U58C gave a self-cleavage of 1.17.
A47G U54A U80C gave a self-cleavage of 1.2.
Work on A47G U54C A64G yielded a self-cleavage of 0.19.
In the case of A47G U58A U78G, the self-cleavage is reported as 0.39.
Work on A47G U58C A65U yielded a self-cleavage of 0.21.
In the case of A47G U58C A77G, the self-cleavage is reported as 1.16.
With A47G U58C C68U U72A the self-cleavage was 0.49.
Variant A47G U58C U66C has a self-cleavage of 0.63.
A47G U58C U78A gave a self-cleavage of 1.22.
Work on A47G U60A A65U yielded a self-cleavage of 0.14.
With A47G U60A U69C the self-cleavage was 0.3.
A47G U60A U74C gave a self-cleavage of 1.
A47G U60A U80C gave a self-cleavage of 0.61.
In the case of A47G U60C A75G U76A, the self-cleavage is reported as 0.12.
Variant A47G U60C C81A has a self-cleavage of 0.45.
A47G U60C U66C U72A gave a self-cleavage of 0.15.
A47G U60C U69C gave a self-cleavage of 0.26.
A47G U66C A75G gave a self-cleavage of 0.09.
With A47G U66C U72A the self-cleavage was 0.34.
In the case of A47G U67C U72C, the self-cleavage is reported as 0.36.
A47G U67C U76G gave a self-cleavage of 0.33.
A47G U69C U72C gave a self-cleavage of 0.5.
A47G U69C U80C gave a self-cleavage of 0.52.
In the case of A47G U72C U78C, the self-cleavage is reported as 1.21.
Variant A47U A56C C79A has a self-cleavage of 0.29.
Variant A47U A56C U58C has a self-cleavage of 0.39.
A47U A56G A57G C59U U60A gave a self-cleavage of 0.11.
A47U A56G G63A A64U U76C U78A gave a self-cleavage of 0.09.
Variant A47U A56G U69A U72C has a self-cleavage of 0.22.
Work on A47U A56G U69G yielded a self-cleavage of 0.33.
In the case of A47U A56U A64G U78C, the self-cleavage is reported as 0.11.
A47U A56U A65G showed a self-cleavage of 0.06.
A47U A57G G70C U74G gave a self-cleavage of 0.04.
A47U A65G U74C A75G gave a self-cleavage of 0.35.
A47U C59U U60A A64G U72C showed a self-cleavage of 0.1.
Work on A47U G52C A56G G63U U72C yielded a self-cleavage of 0.35.
Work on A47U G55A U78C U80G yielded a self-cleavage of 0.13.
A47U G61A U69A U72C showed a self-cleavage of 0.41.
Work on A47U U48C A57G yielded a self-cleavage of 0.75.
With A47U U48C U51G G63U the self-cleavage was 0.07.
With A47U U49A U80C the self-cleavage was 0.31.
Work on A47U U49C A57U yielded a self-cleavage of 0.57.
In the case of A47U U49C U60G C81U, the self-cleavage is reported as 0.05.
Variant A47U U51A A56G A64G has a self-cleavage of 0.15.
Work on A47U U51A A57G yielded a self-cleavage of 0.35.
Variant A47U U51C U69C has a self-cleavage of 0.22.
Variant A47U U51C U80C has a self-cleavage of 0.65.
In the case of A47U U54A A65G, the self-cleavage is reported as 0.05.
A47U U54A U74C showed a self-cleavage of 0.31.
A47U U54G U80C gave a self-cleavage of 0.37.
Work on A47U U74C A75C U76A yielded a self-cleavage of 1.22.
A47U U76C U80C showed a self-cleavage of 0.97.
With U48A A56U U78C the self-cleavage was 0.39.
Work on U48A A77G U78A yielded a self-cleavage of 0.75.
Variant U48A C50A G63A U72C has a self-cleavage of 0.27.
U48A C62U A65U gave a self-cleavage of 0.07.
With U48A U51A A75G the self-cleavage was 0.36.
In the case of U48A U51C G63U, the self-cleavage is reported as 0.24.
In the case of U48A U51C U67C U80A, the self-cleavage is reported as 0.14.
For U48A U58C U69C, the self-cleavage was 0.08.
For U48A U58C U72C U80G, the self-cleavage was 0.1.
Variant U48C A56G U60A G63A U74C has a self-cleavage of 0.22.
With U48C A56G U60C U67C U69G the self-cleavage was 0.26.
Variant U48C A56G U60G has a self-cleavage of 0.24.
With U48C A56G U69C the self-cleavage was 0.51.
U48C A56G U74A gave a self-cleavage of 0.2.
U48C A57G U60A gave a self-cleavage of 0.78.
For U48C A57G U67C, the self-cleavage was 0.18.
In the case of U48C A57U U69C U72A, the self-cleavage is reported as 0.1.
With U48C A57U U69C U74A the self-cleavage was 0.21.
U48C A57U U80C gave a self-cleavage of 0.85.
U48C A64G A65U U67C showed a self-cleavage of 0.23.
Variant U48C A64G U67A has a self-cleavage of 0.36.
For U48C A64U U72A, the self-cleavage was 0.24.
For U48C A64U U72C, the self-cleavage was 0.14.
For U48C A64U U78C, the self-cleavage was 0.15.
With U48C A65G A77C the self-cleavage was 0.1.
U48C A65G G73A gave a self-cleavage of 0.47.
U48C A65G U66C U67A gave a self-cleavage of 0.2.
U48C A75C U78A gave a self-cleavage of 0.93.
Work on U48C C50G U74A U80C yielded a self-cleavage of 0.25.
In the case of U48C C50U U69C, the self-cleavage is reported as 0.16.
Variant U48C C59U G63U A65U has a self-cleavage of 0.11.
U48C C62U U72C U78C showed a self-cleavage of 0.18.
Variant U48C C71U U72C U80G has a self-cleavage of 0.39.
U48C G53A U66C U72C gave a self-cleavage of 0.4.
Work on U48C G53A U67C yielded a self-cleavage of 0.47.
In the case of U48C G53U C62U, the self-cleavage is reported as 0.13.
U48C G55U U58C gave a self-cleavage of 0.14.
Variant U48C G55U U60C has a self-cleavage of 0.12.
U48C G70A U72C gave a self-cleavage of 0.19.
With U48C G70C U78C the self-cleavage was 0.23.
U48C U49C A56G A65C U76C U78C gave a self-cleavage of 0.08.
With U48C U49C U72C the self-cleavage was 0.16.
U48C U51A A57G U72C showed a self-cleavage of 0.82.
With U48C U51A A64G the self-cleavage was 0.18.
In the case of U48C U51A A64U A77U U80C, the self-cleavage is reported as 0.12.
U48C U51A G55U A57G U69C showed a self-cleavage of 0.17.
Work on U48C U51C A57U yielded a self-cleavage of 0.22.
In the case of U48C U51C A57U A65G G73U, the self-cleavage is reported as 0.26.
Variant U48C U51C C62U has a self-cleavage of 0.31.
Variant U48C U51C C71G C81G has a self-cleavage of 0.07.
In the case of U48C U51C U58C G61A U72C C79A, the self-cleavage is reported as 0.13.
With U48C U54A A56U U60C the self-cleavage was 0.23.
Work on U48C U54A U67G yielded a self-cleavage of 0.68.
Variant U48C U54A U72A has a self-cleavage of 0.45.
With U48C U54C U66C the self-cleavage was 0.13.
For U48C U54C U67C U69A U72C C79U, the self-cleavage was 0.15.
For U48C U54C U69A U78C, the self-cleavage was 0.09.
For U48C U58A A65G, the self-cleavage was 0.14.
Variant U48C U58C G73A U78C has a self-cleavage of 0.34.
With U48C U58C U80C the self-cleavage was 0.14.
Variant U48C U60A U72G A75U has a self-cleavage of 0.14.
U48C U60C U66C showed a self-cleavage of 0.17.
Work on U48C U60G U69C yielded a self-cleavage of 0.18.
With U48C U66C U67C the self-cleavage was 0.12.
U48C U66C U69C G73A U76C gave a self-cleavage of 0.19.
With U48C U66C U78A the self-cleavage was 0.29.
U48C U67A U80C showed a self-cleavage of 0.44.
U48C U67C A75U gave a self-cleavage of 0.13.
